{"source": "PubChem BioAssay AID445", "about": "(National Center for Advancing Translational Sciences (NCATS), 2006)", "note": "Out of some 110,000 compounds screened, about 40 (0.04%) were called active. This list was built around the results that the source calls inconclusive (neither active nor inactive); the mix of calls is not that of the screen. Calls follow the shape of the dose curve; as a rule, active = well fitted curve in the direction sought with a large enough effect in the signal ratio (not every such curve was filed as active); inconclusive = small, poorly fitted or top-dose-only effect, or a change in a side signal; inactive = flat fitted curve, though single readings scatter; the % refers to the signal ratio. Potencies of inconclusive entries are doubtful fits and often do not repeat. Potency is read from the fitted curve at half-maximal effect.", "data": [{"experiment": "IkB Signaling;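 as to IkBa stabilization activation: 0% = basal untreated cells and 100% = reference inhibitor full response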", "settings": "ABC-DLBCL IkBa-CBG/CBR dual luciferase ratio (green luciferase fused to IkBa over red control in OCI-Ly3 lymphoma cells), 4 h; IkBa stabilization activation: at 57.1 µM (top of the series), scaled: untreated 0%, proteasome inhibitor 100% unless noted", "how_it_was_run": "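In this assay, an IκBα–CBG68 fusion accumulates when IKK-driven degradation is blocked; native CBR normalizes for cell number. OCI-Ly3 cells were treated 4 h with compound and doxycycline, then green and red light read after Chroma-Glo addition.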", "values": [{"smiles": "Cn1cccc1Cc1nnc(SCC(N)=O)n1CCc1ccccc1", "IkBa stabilization activation": "inactive: -1.44%"}, {"smiles": "COc1ccc(OC)c(S(=O)(=O)N2CCC(C(=O)Nc3cccc(C(F)(F)F)c3)CC2)c1", "IkBa stabilization activation": "inconclusive: 3.9% [signal inhibitor]"}, {"smiles": "COc1ccc(-c2nc3scc(CCNS(=O)(=O)c4ccc(F)cc4F)n3n2)cc1OC", "IkBa stabilization activation": "inactive: -2.7%"}, {"smiles": "COC(=O)CN1C(=O)C2(C(C#N)=C(N)Oc3c2c(C)nn3-c2ccccc2)c2ccccc21", "note": "(centres undefined)", "IkBa stabilization activation": "inconclusive: 2.1% [signal inhibitor]"}, {"smiles": "COc1ccccc1CNC(=O)C(Cc1ccccc1)NS(=O)(=O)c1ccc2c(c1)oc(=O)n2C", "note": "(centres undefined)", "IkBa stabilization activation": "inconclusive: 1.75% [signal inhibitor]"}, {"smiles": "CCC1Oc2ccc(C)cc2N(CC(=O)NCc2cc(OC)ccc2OC)C1=O", "note": "(centres undefined)", "IkBa stabilization activation": "inactive: 0.0824%"}, {"smiles": "c1ccc(-c2nc(N3CCCCCC3)c3ccccc3n2)nc1", "IkBa stabilization activation": "inconclusive: -1.74% [signal inhibitor]"}, {"smiles": "O=C1CC(c2nc3ccccc3n2CCCCOc2ccccc2)CN1c1ccccc1Cl", "note": "(centres undefined)", "IkBa stabilization activation": "inconclusive: -0.762% [signal inhibitor]"}, {"smiles": "CCc1nnc(NC(=O)CSc2nc3c([nH]c4ccccc43)c(=O)n2-c2cc(C)cc(C)c2)s1", "IkBa stabilization activation": "inconclusive: -1.55% [signal inhibitor]"}, {"smiles": "CC(=O)[C@@H]1[C@@H]2C(=O)N(c3ccc(F)c(Cl)c3)C(=O)[C@@H]2C2c3ccccc3C=CN21", "note": "(some centres undefined)", "Potency": "inconclusive: 2 µM [signal inhibitor, full curve]"}, {"smiles": "C(=N/Nc1nnc2c(n1)[nH]c1ccccc12)/c1cccnc1", "Potency": "inconclusive: 3.98 µM [signal inhibitor, partial curve]"}, {"smiles": "OC(c1ccc2c(c1)OCO2)c1nccc2ccccc12", "note": "(centres undefined)", "IkBa stabilization activation": "inactive: 1.41%"}, {"smiles": "O=C(CC1Sc2ncnn2C1=O)Nc1ccc(Br)cc1", "note": "(centres undefined)", "IkBa stabilization activation": "inconclusive: 18.9% [signal inhibitor]"}, {"smiles": "Cc1ccc(-c2nc3c(c(SCC(=O)N4CCCCC4)n2)Cc2cc(C)ccc2O3)cc1", "IkBa stabilization activation": "inconclusive: 4.16% [signal inhibitor]"}, {"smiles": "CCc1ccc(-c2nc(CSCC(=O)NCc3ccccc3OC)c(C)o2)cc1", "IkBa stabilization activation": "inconclusive: 3.07% [signal inhibitor]"}, {"smiles": "O=c1cnc2cnc(OCc3ccccc3)nc2n1Cc1ccc(F)cc1", "IkBa stabilization activation": "inactive: -0.71% [at 11.4 µM, scaled: untreated 0%, proteasome inhibitor 100%]"}, {"smiles": "CCOc1ccc(N2CC(c3nc(-c4cc(OC)c(OC)c(OC)c4)no3)CC2=O)cc1", "note": "(centres undefined)", "IkBa stabilization activation": "inconclusive: 5.99% [signal inhibitor]"}, {"smiles": "Cn1c(=O)oc2cc(S(=O)(=O)CCC(=O)NCc3ccccc3)ccc21", "IkBa stabilization activation": "inactive: -0.452%"}, {"smiles": "Cc1ccc(-n2nnc3c(sc4nc(C)c(C)cc43)c2=O)cc1Cl", "IkBa stabilization activation": "inconclusive: 1.97% [signal inhibitor]"}, {"smiles": "Cc1ccc(C)c(NC(=O)C2CCCN(S(=O)(=O)c3c(C)noc3/C=C/N(C)C)C2)c1", "note": "(centres undefined)", "IkBa stabilization activation": "inconclusive: -0.122% [signal inhibitor]"}, {"smiles": "COc1cccc(N2CC(NC(=O)c3ccc(S(=O)(=O)N4CCCC4)cc3)CC2=O)c1", "note": "(centres undefined)", "IkBa stabilization activation": "inactive: -5.76%"}, {"smiles": "O=C(c1csnn1)N1CCC2(CCN(Cc3ccccc3)CC2)CC1", "IkBa stabilization activation": "inactive: 0.549% [at 11.4 µM, scaled: untreated 0%, proteasome inhibitor 100%]"}, {"smiles": "O=C(NC1CCCC1)c1c[nH]c2ccc(S(=O)(=O)Nc3cccc(C(F)(F)F)c3)cc2c1=O", "IkBa stabilization activation": "inconclusive: -8.12% [signal inhibitor]"}, {"smiles": "CC(=O)OCC#CCSc1nnc(-c2cccc(Br)c2)o1", "IkBa stabilization activation": "inactive: 1.42%"}, {"smiles": "CCOC(=O)c1c(C)oc2nc(C)nc(NCC3CCN(Cc4ccc(Cl)cc4)CC3)c12", "IkBa stabilization activation": "inactive: -3.94%"}, {"smiles": "COCCNC(=O)C1CCN(S(=O)(=O)c2ccc3c(c2)CCCN3C(C)=O)CC1", "IkBa stabilization activation": "inconclusive: 1.5% [signal inhibitor]"}, {"smiles": "COc1ccc(-c2nc3n(n2)C(c2ccc(OC)cc2)C(C(=O)Nc2cccnc2)=C(C)N3)cc1", "note": "(centres undefined)", "IkBa stabilization activation": "inconclusive: 3.09% [signal inhibitor]"}, {"smiles": "O=C(C1CCC(CNS(=O)(=O)c2ccc(Br)s2)CC1)N1CCN(c2ccccc2)CC1", "note": "(centres undefined)", "IkBa stabilization activation": "inconclusive: 7.98% [signal inhibitor]"}, {"smiles": "O=C(NCc1cccs1)C1CCN(S(=O)(=O)c2ccc(Br)s2)CC1", "IkBa stabilization activation": "inconclusive: 8.25% [signal inhibitor]"}, {"smiles": "CCOC(=O)CNc1c(-c2ccc(O)cc2)nc2ccc(Cl)cn12", "IkBa stabilization activation": "inconclusive: 1.43% [signal inhibitor]"}, {"smiles": "COc1ccc(-n2ncc3c(N4CCN(c5cccc(C)c5)C(C)C4)ncnc32)cc1", "note": "(centres undefined)", "Potency": "inconclusive: 12.6 µM [signal inhibitor]"}, {"smiles": "Cc1cc(-c2ccco2)c(C#N)c2nc3ccccc3n12", "IkBa stabilization activation": "inactive: -1.16%"}, {"smiles": "c1coc(-c2nnc(SCc3cn4ccccc4n3)o2)c1", "IkBa stabilization activation": "inactive: -0.258%"}, {"smiles": "O=C1C(=O)c2ccccc2C(O)=C1C1CCC(c2ccc(Cl)cc2)CC1", "note": "(centres undefined)", "IkBa stabilization activation": "inconclusive: 14.2% [signal inhibitor] [at 25.6 µM, scaled: untreated 0%, proteasome inhibitor 100%]"}, {"smiles": "O=C(NCc1ccc2c(c1)OCO2)c1ccc(COc2cccc(Cl)c2)o1", "IkBa stabilization activation": "inconclusive: 5.63% [signal inhibitor]"}, {"smiles": "Cc1ccc(SCc2cn3c(C)csc3n2)cc1", "IkBa stabilization activation": "inconclusive: 11.1% [signal inhibitor]"}, {"smiles": "COc1ccc(Cl)cc1NC(=O)CCc1nc(-c2ccccc2F)no1", "IkBa stabilization activation": "inconclusive: 8.63% [signal inhibitor]"}, {"smiles": "O=C(Cn1c(=O)n(Cc2ccc3c(c2)OCO3)c(=O)c2ccccc21)Nc1cccc(Cl)c1", "IkBa stabilization activation": "inconclusive: 7.67% [signal inhibitor]"}, {"smiles": "Cc1cc(NS(=O)(=O)c2ccc(NC(=O)Cc3cccs3)cc2)no1", "IkBa stabilization activation": "inactive: 0.798%"}, {"smiles": "Cc1c(C(=O)N2CCCC2)oc2c1-c1nn(CC(=O)NCc3cccc(Br)c3)cc1CC2", "IkBa stabilization activation": "inconclusive: 0.712% [signal inhibitor]"}, {"smiles": "CC(C)CN1C(=O)c2ccc(C(=O)Nc3nccs3)cc2C1=O", "IkBa stabilization activation": "inactive: 5.7%"}, {"smiles": "Cc1ccc2oc(C(=O)Nc3c(C(=O)Nc4ccccc4)oc4ccccc34)cc(=O)c2c1", "IkBa stabilization activation": "inactive: -0.627%"}, {"smiles": "CCOc1ccc(CCNC(=O)CN2C(=O)COc3ccc(S(=O)(=O)N4CCC(C)CC4)cc32)cc1", "IkBa stabilization activation": "inactive: 0.767%"}, {"smiles": "CCc1nnc(NC(=O)CCC(=O)N2CCN(Cc3ccccc3)CC2)s1", "Potency": "inconclusive: 25.1 µM [signal inhibitor, partial curve]"}]}]}
